Assay results: patent US7410975B2, “Small molecule toll-like receptor (TLR) antagonists” (Coley Pharmaceutical Group, Inc., priority 2003, dated 2008)
Counter-ions that a name gives are not always drawn.

Biological target: T1, human TLR3 (hTLR3) (Homo sapiens, UniProt O15455)
T1 construct: expressed in transfected cells
T1 sequence (O15455 24-904): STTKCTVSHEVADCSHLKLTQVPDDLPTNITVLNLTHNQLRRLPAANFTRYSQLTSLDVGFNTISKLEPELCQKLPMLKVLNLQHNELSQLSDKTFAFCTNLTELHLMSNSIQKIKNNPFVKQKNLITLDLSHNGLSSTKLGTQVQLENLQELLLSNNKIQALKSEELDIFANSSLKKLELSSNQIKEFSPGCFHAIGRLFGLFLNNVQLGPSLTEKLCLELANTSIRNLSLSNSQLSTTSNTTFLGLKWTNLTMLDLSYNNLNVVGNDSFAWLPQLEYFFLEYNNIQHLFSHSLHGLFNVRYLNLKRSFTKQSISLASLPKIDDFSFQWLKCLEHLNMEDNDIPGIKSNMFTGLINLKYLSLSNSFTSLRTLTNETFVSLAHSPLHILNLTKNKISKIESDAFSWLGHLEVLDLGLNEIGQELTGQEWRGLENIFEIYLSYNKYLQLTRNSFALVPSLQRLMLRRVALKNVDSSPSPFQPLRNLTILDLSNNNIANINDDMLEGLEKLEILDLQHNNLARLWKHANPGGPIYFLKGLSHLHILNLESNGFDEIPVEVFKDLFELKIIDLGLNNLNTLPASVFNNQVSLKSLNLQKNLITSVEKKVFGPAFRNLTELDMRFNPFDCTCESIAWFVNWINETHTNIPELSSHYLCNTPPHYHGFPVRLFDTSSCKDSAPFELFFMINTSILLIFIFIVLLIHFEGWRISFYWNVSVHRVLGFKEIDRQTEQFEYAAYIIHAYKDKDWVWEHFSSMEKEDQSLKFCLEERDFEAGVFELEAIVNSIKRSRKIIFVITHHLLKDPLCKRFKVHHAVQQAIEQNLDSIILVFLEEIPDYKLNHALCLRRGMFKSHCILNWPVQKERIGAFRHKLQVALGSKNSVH
Assay: Antagonist screen, hTLR3-NFκB-293 cells, NF-κB-luciferase reporter, with EC50 of poly(I:C)
Format: cell-based
Details: compound at 0.5, 5, 50 μg/ml, EC50 concentration of poly(I:C), 16 h
Description: The method is described in greater detail as follows. The cells for each individual cell clone (hTLR3-NFκB-293, hTLR7-NFκB-293, hTLR8-NFκB-293 and hTLR9-NFκB-293) were counted and seeded one day before the stimulation at 1.5×10^4 cells per well in 96-well cell culture plates. To become adherent the cells were incubated after seeding overnight at 37° C. in 5% CO2 humidified air.
The screen for each compound was performed at the same time for all of the receptors TLR3, TLR7, TLR8 and TLR9. Up to fifteen test compounds, each assayed in duplicate at each of three different final concentrations (0.5 μg/ml, 5 μg/ml, and 50 μg/ml), were used for 16 h cell stimulation on a single multiwell culture plate. A 4× final concentration master plate was created to prepare the different test compounds before they were added to the cells.
Controls were added as duplicates individually for each cell clone on the cell culture plate. Positive controls were used as follows (final concentrations): 50 μg/ml poly(I:C) for hTLR3-NFκB-293; 8 μM resiquimod (R848) for hTLR7-NFκB-293; 30 μM R848 for hTLR8-NFκB-293; and 2.5 μM CpG-ODN 2006 for hTLR9-NFκB-293. Media alone was used as negative control. After addition of controls and small molecules, the cell clones were additionally stimulated with the EC50 concentration of the appropriate receptor-specific ligand. […]
The baseline result (measured with addition of the EC50 concentration of the receptor-specific ligand) for each cell culture plate was measured as described above. Antagonistic effects were measured by down regulation compared to the baseline. Antagonists were scored as follows: • 13: compounds for which there was clear down regulation at 0.5 μg/ml, 5 μg/ml, and 50 μg/ml; • 12: compounds for which there was clear down regulation at 5 μg/ml and 50 μg/ml; • 11: compounds for which there was clear down regulation only at 50 μg/ml; • —: compounds for which there was no clear down regulation even at 50 μg/ml. […]
Results were expressed as fold induction over baseline luciferase activity measured in the absence of poly(I:C). […]

SMILES | hTLR3 (inhibitory effect, antagonist score)
CN1CCC[C@@H]1CCO[C@](C)(c1ccccc1)c1ccc(Cl)cc1.O=C(O)/C=C/C(=O)O [compound 306, Clemastine fumarate] | 11 (compounds for which there was clear down regulation only at 50 μg/ml)
Cc1ccccc1C(OCCN(C)C)c1ccccc1 (stereo not drawn) [compound 239, Orphenadrinehydrochloride] | — (compounds for which there was no clear down regulation even at 50 μg/ml)
CN1CCN2c3ccccc3Cc3ccccc3C2C1.Cl (stereo not drawn) [compound 99, Mianserinehydrochloride] | 11 (compounds for which there was clear down regulation only at 50 μg/ml)
